Experimental findings from the supplement of paper PMC9446081 are described below.

In all, about 39,000 compounds went through this assay and about 220 (0.56%) showed activity. Some of the results follow.
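Further: static incubation at 37 °C against the wild-type strain, values averaged over two biological replicates.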

For the test, the system named is Escherichia coli K-12 BW25113. The test is described as follows: relative growth (OD600 normalised to plate interquartile mean) (fraction); higher = less growth inhibition, active = 0.2 or less. To be noted: 50 µM; LB; incubation time: overnight (16-24 h).
On to `CC(C)NC(=O)Nc1ccc2c(c1)C(=O)N([C@@H](C)CO)C[C@@H](C)[C@H](CN(C)C(=O)C1CCCCC1)OCCCC[C@@H](C)O2`, for which the relative growth is inactive: 0.995.
Consider `CC(C)NC(=O)Nc1ccc2c(c1)C(=O)N([C@H](C)CO)C[C@@H](C)[C@@H](CN(C)S(=O)(=O)c1ccc(F)cc1)O2`, for which the relative growth is inactive: 1.02.
To `C[C@@H]1CN([C@@H](C)CO)C(=O)c2cccc(NS(=O)(=O)c3ccc(Cl)cc3)c2O[C@H]1CN(C)Cc1ccc(C(F)(F)F)cc1` belongs inactive: 1.01; to `C[C@@H]1CN([C@H](C)CO)S(=O)(=O)c2ccc(C3=CCCC3)cc2O[C@@H]1CN(C)S(=O)(=O)c1ccc(F)cc1`, inactive: 1.01; to `C[C@H]1CN([C@@H](C)CO)C(=O)CCCn2nncc2CO[C@H]1CN(C)S(=O)(=O)c1ccc(C#N)cc1`, inactive: 1.01.
To `COc1ccc(S(=O)(=O)N(C)C[C@H]2Oc3c(NS(=O)(=O)c4ccccc4)cccc3C(=O)N([C@@H](C)CO)C[C@@H]2C)cc1` belongs inactive: 0.887; to `C[C@@H]1CCCCO[C@@H](CN(C)Cc2ccc(Cl)c(Cl)c2)[C@@H](C)CN([C@@H](C)CO)C(=O)c2cc(NC(=O)NC3CCCCC3)ccc2O1`, inactive: 1.05.
To `COc1ccc(CN(C)C[C@H]2Oc3ccc(NC(=O)C4CC4)cc3CC(=O)N([C@@H](C)CO)C[C@@H]2C)cc1` belongs inactive: 0.99; to `Cc1ccc(S(=O)(=O)Nc2ccc3c(c2)C(=O)N([C@@H](C)CO)C[C@@H](C)[C@H](CN(C)Cc2ccccc2)OCCCC[C@H](C)O3)cc1`, inactive: 0.999; to `C[C@@H]1CCCCO[C@@H](CN(C)C(=O)C2CCCCC2)[C@H](C)CN([C@H](C)CO)C(=O)c2cc(NS(=O)(=O)c3ccc(Cl)cc3)ccc2O1`, inactive: 1.01.
Regarding `Cc1ccc(S(=O)(=O)N(C)C[C@H]2Oc3ccc(NC(=O)C4CC4)cc3CC(=O)N([C@@H](C)CO)C[C@H]2C)cc1`, the relative growth is inactive: 1.02.
To `Cc1noc(C)c1S(=O)(=O)N(C)C[C@@H]1OCCCC[C@@H](C)Oc2ccc(N(C)C)cc2C(=O)N([C@H](C)CO)C[C@H]1C` belongs inactive: 0.996; to `C[C@H]1CN([C@@H](C)CO)C(=O)c2cc(NC(=O)Nc3ccc(C(F)(F)F)cc3)ccc2O[C@@H]1CN(C)C(=O)Nc1cccc2ccccc12`, inactive: 1.04; to `C[C@@H]1CN([C@H](C)CO)C(=O)c2cc(NC(=O)Nc3cccc4ccccc34)ccc2O[C@@H](C)CCCCO[C@@H]1CN(C)Cc1ccncc1`, inactive: 1.02.
Regarding `Cl.NC1CCN(c2c(F)cc3c(=O)c(C(=O)O)cn(C4CC4)c3c2Cl)C1` (stereo unspecified), the relative growth is active: 0.0438.
In the case of `C[C@@H]1CN([C@H](C)CO)S(=O)(=O)c2ccc(C#Cc3cccc(F)c3)cc2O[C@H]1CN(C)C(=O)CN1CCOCC1`, the relative growth was inactive: 1.02.
With `CCN(CC)c1ccnc([C@H]2COCCN2)n1`, the relative growth was inactive: 1.
As for `C[C@@H]1CCCCO[C@H](CN(C)CC2CCCCC2)[C@@H](C)CN([C@H](C)CO)C(=O)c2cc(NC(=O)CCC(F)(F)F)ccc2O1`, the relative growth is inactive: 1.
To `O=C(C[C@H]1C[C@H]2c3cc(NS(=O)(=O)c4ccc(F)cc4)ccc3O[C@H]2[C@H](CO)O1)N1CCOCC1` belongs inactive: 1.03; to `CN1C(=O)c2cc(NS(C)(=O)=O)ccc2OC[C@H]2O[C@@H](CC(=O)N3CCOCC3)CC[C@H]21`, inactive: 0.986; to `C[C@H](CO)N1C[C@H](C)[C@@H](CN(C)CC2CCCCC2)Oc2ccc(NS(=O)(=O)c3cn(C)cn3)cc2C1=O`, inactive: 1.
For the compound `C[C@@H]1CCCCO[C@@H](CN(C)Cc2ccccc2)[C@@H](C)CN([C@@H](C)CO)C(=O)c2cc(NS(=O)(=O)c3ccc(Cl)cc3)ccc2O1`, the relative growth was inactive: 1.01.
As for `C[C@@H]1CN([C@H](C)CO)C(=O)Cc2cc(NC(=O)Nc3cccc4ccccc34)ccc2O[C@H]1CN(C)CC1CCCCC1`, the relative growth is inactive: 0.9.
For the compound `COc1ccc(S(=O)(=O)N(C)C[C@@H]2Oc3c(NC(=O)C4CC4)cccc3C(=O)N([C@@H](C)CO)C[C@@H]2C)cc1`, the relative growth is inactive: 0.999.
For the compound `C[C@H](CO)N1C[C@H](C)[C@@H](CN(C)S(C)(=O)=O)OCCCC[C@H](C)Oc2ccc(N(C)C)cc2C1=O`, the relative growth is inactive: 0.989.
As for `C[C@@H]1CN([C@@H](C)CO)C(=O)c2cc(NC(=O)Nc3ccc4c(c3)OCO4)ccc2O[C@@H]1CN(C)Cc1ccc(-c2ccccc2)cc1`, the relative growth is inactive: 1.03.
Take `COc1ccc(NC(=O)Nc2ccc3c(c2)CC(=O)N([C@H](C)CO)C[C@@H](C)[C@H](CN(C)Cc2ccc(Cl)c(Cl)c2)O3)cc1`: the relative growth was inactive: 1.02.
To `C[C@@H]1CCCCO[C@H](CN(C)S(=O)(=O)c2cccs2)[C@H](C)CN([C@H](C)CO)C(=O)c2cc(NC(=O)Nc3ccccc3)ccc2O1` belongs inactive: 1.03; to `Cc1noc(C)c1S(=O)(=O)Nc1cccc2c1O[C@@H](CN(C)Cc1ccc(C(=O)O)cc1)[C@@H](C)CN([C@@H](C)CO)C2=O`, inactive: 0.988.
As to `C[C@@H]1CCCCO[C@@H](CN(C)C(=O)CCC(F)(F)F)[C@H](C)CN([C@@H](C)CO)C(=O)c2cc(NS(=O)(=O)c3ccc(Cl)cc3)ccc2O1`, the relative growth was inactive: 1.01.
Turning to `O=C(O)c1c2ccccc2cc2ccccc12`, the relative growth is inactive: 1.07.
As to `COc1cccc(S(=O)(=O)N(C)C[C@H]2Oc3cc(C#CCN(C)C)ccc3S(=O)(=O)N([C@H](C)CO)C[C@H]2C)c1`, the relative growth was inactive: 1.01.
To `COC(=O)C[C@H]1O[C@]2(C(=O)N(Cc3ccccc3)c3ccc(I)cc32)[C@@H](C)[C@@H]1[Si](C)(C)c1ccc(OC)cc1` belongs inactive: 0.987; to `Fc1ccc(-c2nc3c4ccccc4c4ccccc4c3[nH]2)cc1`, inactive: 0.997; to `C[C@@H]1CN([C@H](C)CO)C(=O)Cc2cc(NS(C)(=O)=O)ccc2O[C@@H]1CN(C)Cc1ccc(C(F)(F)F)cc1`, inactive: 1.02.
To `C[C@H](CO)N1C[C@H](C)[C@@H](CN(C)Cc2cccc(C(F)(F)F)c2)OCc2ccccc2-c2c(n(C)c3ccccc23)C1=O` belongs inactive: 0.998; to `COc1ccc2c3c(n(c2c1)C)[C@@H](CO)N(C[C@]13CCN(CC1)C(=O)Nc1cccc(c1)F)C(=O)C1CCCCC1`, inactive: 1.02.
For the compound `O=C1O[C@@H](c2ccccc2)[C@@H](c2ccccc2)N2[C@@H](c3ccc(OCCO)cc3)[C@]3(C(=O)Nc4ccccc43)[C@@H](C(=O)N3CCCCCCC3)[C@H]12`, the relative growth was inactive: 1.04.
As to `O=C1O[C@@H](c2ccccc2)[C@@H](c2ccccc2)N2[C@@H](c3ccc(OCCO)cc3)[C@]3(C(=O)Nc4ccc(C#CC5(O)CCCCCC5)cc43)[C@@H](C(=O)NC[C@H](O)c3ccccc3)[C@H]12`, the relative growth is inactive: 1.1.
Turning to `CCS(=O)(=O)Nc1ccc2c(c1)C(=O)N(C)C[C@@H](OC)[C@H](C)CN(C(=O)c1ccc3c(c1)OCO3)[C@@H](C)CO2`, the relative growth is inactive: 0.947.
On to `CCS(=O)(=O)Nc1ccc2c(c1)C(=O)N(C)C[C@H](OC)[C@@H](C)CN(C(=O)c1ccc3c(c1)OCO3)[C@@H](C)CO2`, for which the relative growth was inactive: 1.
To `C[C@@H]1CCCCO[C@H](CN(C)C(=O)Nc2ccccc2)[C@H](C)CN([C@@H](C)CO)C(=O)c2cc(NC(=O)c3ccncc3)ccc2O1` belongs inactive: 0.966.
Take `COCC#Cc1ccc2c(c1)O[C@H](CN(C)C(=O)C1CCCCC1)[C@H](C)CN([C@@H](C)CO)S2(=O)=O`: the relative growth was inactive: 1.01.
As for `CN1CCN(C(=O)C[C@@H]2CC[C@@H]3[C@H](COC[C@H](O)CN3S(=O)(=O)c3cccc(F)c3)O2)CC1`, the relative growth is inactive: 1.02.
In the case of `Cc1ccc(S(=O)(=O)N(C)C[C@H]2Oc3ccc(NC(=O)Nc4cccc5ccccc45)cc3CC(=O)N([C@@H](C)CO)C[C@@H]2C)cc1`, the relative growth was inactive: 1.02.
To `O=C(NCCCN1CCOCC1)c1ccc(Cl)cc1` belongs inactive: 1.06.
As to `Cc1noc(C)c1NC(=O)N(C)C[C@@H]1OCCCC[C@@H](C)Oc2ccc(NC(=O)Nc3ccc(C(F)(F)F)cc3)cc2C(=O)N([C@@H](C)CO)C[C@H]1C`, the relative growth is inactive: 1.01.
As for `C[C@H]1CCCCO[C@H](CN(C)S(=O)(=O)c2ccccc2)[C@@H](C)CN([C@@H](C)CO)C(=O)c2cc(NS(=O)(=O)c3cn(C)cn3)ccc2O1`, the relative growth was inactive: 1.02.
Take `C[C@@H]1CCCCO[C@H](CN(C)C(=O)Nc2ccc(C(F)(F)F)cc2)[C@@H](C)CN([C@@H](C)CO)C(=O)c2cc(NS(=O)(=O)c3ccc(F)cc3)ccc2O1`: the relative growth was inactive: 1.01.
To `C[C@@H]1CN([C@@H](C)CO)C(=O)c2cc(NC(=O)CCCCCC(=O)Nc3ccccc3N)ccc2O[C@H]1CN(C)CC1CCCCC1` belongs inactive: 0.987; to `CC(C)NC(=O)N[C@@H]1C=C[C@@H](CC(=O)O)O[C@@H]1CO`, inactive: 0.997.
Consider `O=C(CCCCC(=O)N/N=C/[C@@H](O)[C@@H](O)[C@H](O)[C@H](O)CO)NO`, for which the relative growth was inactive: 1.03.
In the case of `Cc1ccc(S(=O)(=O)Nc2ccc3c(c2)C(=O)N([C@H](C)CO)C[C@@H](C)[C@H](CN(C)Cc2ccc(Cl)c(Cl)c2)OCCCC[C@H](C)O3)cc1`, the relative growth is inactive: 0.989.
Consider `CNC(=O)C[C@@H]1CC[C@@H]2[C@H](COC[C@H](O)CN2C(=O)c2ccc3c(c2)OCO3)O1`, for which the relative growth was inactive: 1.01.
As to `C=C(C(=O)O[C@H]1CC=C(C)C[C@H](O)[C@H]2[C@H](C)C(=O)O[C@@H]2/C=C/1C)[C@@H]1CCC(=C)[C@@H]2C[C@H](O[C@@H]3O[C@H](COC(=O)CC(=O)O)[C@@H](O)[C@H](O)[C@H]3O)C(=C)[C@@H]2C1`, the relative growth is inactive: 1.
Take `CN(C)c1cc(CNCC(C)(C)C)c(O)c2c1C[C@H]1C[C@H]3[C@H](N(C)C)C(=O)[C@H](C(N)=O)C(=O)[C@@]3(O)C(=O)[C@@H]1C2=O`: the relative growth was active: 0.0692.
